Reference: the supplement of paper PMC6531468
The list shows a part of the results. Read counts after selection give these values, which scatter widely. Scores sum up all selected molecules that hold the word; the word was not tested alone.

What was measured:
Assay in all cases: 6-mer SELEX enrichment z-score vs GST control; IMP3 is the RNA-binding protein IGF2BP3; higher = more enriched by binding
IMP3 KH1-4 = conditions: construct: KH1-4 (164-579); SELEX round: R4
Procedure: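 SELEX-seq with GST-tagged IMP3 KH1-4 (Pro164-Lys579) and an N40 RNA pool, round 4. 6-mer z-score of sequence-tag enrichment normalised to the corresponding GST SELEX round; RNA k-mers written as DNA (T for U).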

IMP3 RRM1-2 = conditions: construct: RRM1-2 (1-163); SELEX round: R2
Chain of IMP3 RRM1-2 (chain, as listed by the source): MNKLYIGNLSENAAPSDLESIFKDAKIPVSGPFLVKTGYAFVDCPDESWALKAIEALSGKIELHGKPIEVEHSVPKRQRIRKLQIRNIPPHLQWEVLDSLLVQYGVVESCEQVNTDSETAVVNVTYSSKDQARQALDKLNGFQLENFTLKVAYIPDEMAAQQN
Procedure: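 SELEX-seq with GST-tagged IMP3 RRM1-2 (Met1-Asn163) and an N40 RNA pool, round 2. 6-mer enrichment z-score normalised to GST SELEX. RNA written as DNA (T = U).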

IMP3 full-length = IMP3 full-length (UniProt O00425); conditions: construct: FL IMP3 (1-579); SELEX round: R4
Chain of UniProt O00425 (O00425 whole entry): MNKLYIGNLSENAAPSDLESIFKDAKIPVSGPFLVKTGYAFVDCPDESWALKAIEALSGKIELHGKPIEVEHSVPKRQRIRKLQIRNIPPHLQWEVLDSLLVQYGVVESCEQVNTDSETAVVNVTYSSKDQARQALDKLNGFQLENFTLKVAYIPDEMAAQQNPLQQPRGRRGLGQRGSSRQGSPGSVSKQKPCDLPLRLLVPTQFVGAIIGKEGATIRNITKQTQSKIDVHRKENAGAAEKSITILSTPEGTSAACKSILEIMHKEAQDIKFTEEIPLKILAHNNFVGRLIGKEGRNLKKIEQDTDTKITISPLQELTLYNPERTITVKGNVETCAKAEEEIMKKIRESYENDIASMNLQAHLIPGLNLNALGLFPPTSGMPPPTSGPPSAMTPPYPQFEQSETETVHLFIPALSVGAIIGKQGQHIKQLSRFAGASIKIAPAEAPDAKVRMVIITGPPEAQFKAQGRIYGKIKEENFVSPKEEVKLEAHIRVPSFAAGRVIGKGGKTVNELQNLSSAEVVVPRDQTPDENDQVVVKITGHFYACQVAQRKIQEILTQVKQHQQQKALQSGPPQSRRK
Procedure: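 SELEX-seq with GST-tagged full-length IMP3 and an N40 RNA pool, round 4. Each 6-mer is scored as an enrichment z-score of sequence tags containing it, normalised to the matching GST SELEX round. RNA written as DNA (T = U).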

IMP3 KH3-4 = conditions: construct: KH3-4 (377-579); SELEX round: R4
Chain of IMP3 KH3-4 (chain, as listed by the source): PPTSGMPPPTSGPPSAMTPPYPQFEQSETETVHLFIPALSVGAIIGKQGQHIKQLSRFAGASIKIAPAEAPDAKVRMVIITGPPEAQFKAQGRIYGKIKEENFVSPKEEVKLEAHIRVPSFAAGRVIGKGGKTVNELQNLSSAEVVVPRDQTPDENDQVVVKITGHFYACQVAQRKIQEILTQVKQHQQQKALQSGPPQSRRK
Procedure: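 SELEX-seq with GST-tagged IMP3 KH3-4 (Pro377-Lys579) and an N40 RNA pool, round 4. 6-mer z-score of sequence-tag enrichment normalised to the corresponding GST SELEX round; RNA k-mers written as DNA (T for U).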

Chain of IMP3 KH1-4 (chain, as listed by the source): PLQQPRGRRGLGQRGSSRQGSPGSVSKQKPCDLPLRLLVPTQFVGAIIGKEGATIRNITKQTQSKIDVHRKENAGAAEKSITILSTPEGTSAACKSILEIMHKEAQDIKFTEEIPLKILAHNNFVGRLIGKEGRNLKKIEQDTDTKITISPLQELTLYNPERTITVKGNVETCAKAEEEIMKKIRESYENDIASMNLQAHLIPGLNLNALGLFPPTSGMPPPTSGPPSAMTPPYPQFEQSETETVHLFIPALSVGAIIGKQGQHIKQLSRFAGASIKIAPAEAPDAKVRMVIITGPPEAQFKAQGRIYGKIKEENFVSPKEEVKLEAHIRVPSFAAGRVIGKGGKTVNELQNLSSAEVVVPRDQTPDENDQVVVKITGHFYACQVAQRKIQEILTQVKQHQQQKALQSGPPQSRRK

TATTAT
6-mer SELEX enrichment z-score (IMP3 KH1-4): 1.3 | 6-mer SELEX enrichment z-score (IMP3 RRM1-2): 0.377 | 6-mer SELEX enrichment z-score (IMP3 full-length): 0.263 | 6-mer SELEX enrichment z-score (IMP3 KH3-4): 1.84

CCATAC
6-mer SELEX enrichment z-score (IMP3 KH1-4): 0.378 | 6-mer SELEX enrichment z-score (IMP3 RRM1-2): 0.639 | 6-mer SELEX enrichment z-score (IMP3 full-length): 0.348 | 6-mer SELEX enrichment z-score (IMP3 KH3-4): -0.251

TAGCTC
6-mer SELEX enrichment z-score (IMP3 KH1-4): -0.097 | 6-mer SELEX enrichment z-score (IMP3 RRM1-2): 0.304 | 6-mer SELEX enrichment z-score (IMP3 full-length): 0.047 | 6-mer SELEX enrichment z-score (IMP3 KH3-4): -0.02

AATATG
6-mer SELEX enrichment z-score (IMP3 KH1-4): 1.74 | 6-mer SELEX enrichment z-score (IMP3 RRM1-2): -0.752 | 6-mer SELEX enrichment z-score (IMP3 full-length): -0.008 | 6-mer SELEX enrichment z-score (IMP3 KH3-4): 2.39

GTTCTC
6-mer SELEX enrichment z-score (IMP3 KH1-4): -0.198 | 6-mer SELEX enrichment z-score (IMP3 RRM1-2): 0.406 | 6-mer SELEX enrichment z-score (IMP3 full-length): 0.077 | 6-mer SELEX enrichment z-score (IMP3 KH3-4): -0.116

CCGATC
6-mer SELEX enrichment z-score (IMP3 KH1-4): -1.27 | 6-mer SELEX enrichment z-score (IMP3 RRM1-2): -0.186 | 6-mer SELEX enrichment z-score (IMP3 full-length): -0.444 | 6-mer SELEX enrichment z-score (IMP3 KH3-4): -1.44

TAGTTT
6-mer SELEX enrichment z-score (IMP3 KH1-4): -0.177 | 6-mer SELEX enrichment z-score (IMP3 RRM1-2): 0.487 | 6-mer SELEX enrichment z-score (IMP3 full-length): -0.086 | 6-mer SELEX enrichment z-score (IMP3 KH3-4): 0.119

TGTATC
6-mer SELEX enrichment z-score (IMP3 KH1-4): -0.269 | 6-mer SELEX enrichment z-score (IMP3 RRM1-2): 0.207 | 6-mer SELEX enrichment z-score (IMP3 full-length): -0.116 | 6-mer SELEX enrichment z-score (IMP3 KH3-4): -0.174

GTCCCT
6-mer SELEX enrichment z-score (IMP3 KH1-4): -0.248 | 6-mer SELEX enrichment z-score (IMP3 RRM1-2): -0.091 | 6-mer SELEX enrichment z-score (IMP3 full-length): -0.252 | 6-mer SELEX enrichment z-score (IMP3 KH3-4): -0.53

ACTAAT
6-mer SELEX enrichment z-score (IMP3 KH1-4): 1.35 | 6-mer SELEX enrichment z-score (IMP3 RRM1-2): -0.016 | 6-mer SELEX enrichment z-score (IMP3 full-length): -0.09 | 6-mer SELEX enrichment z-score (IMP3 KH3-4): 1.78

GCCGAA
6-mer SELEX enrichment z-score (IMP3 KH1-4): -1.41 | 6-mer SELEX enrichment z-score (IMP3 RRM1-2): -1.25 | 6-mer SELEX enrichment z-score (IMP3 full-length): -0.891 | 6-mer SELEX enrichment z-score (IMP3 KH3-4): -1.23

TACTCC
6-mer SELEX enrichment z-score (IMP3 KH1-4): -0.698 | 6-mer SELEX enrichment z-score (IMP3 RRM1-2): -0.114 | 6-mer SELEX enrichment z-score (IMP3 full-length): -0.773 | 6-mer SELEX enrichment z-score (IMP3 KH3-4): -0.886

CCCTTT
6-mer SELEX enrichment z-score (IMP3 KH1-4): 0.59 | 6-mer SELEX enrichment z-score (IMP3 RRM1-2): -0.067 | 6-mer SELEX enrichment z-score (IMP3 full-length): -0.173 | 6-mer SELEX enrichment z-score (IMP3 KH3-4): 0.054

AAAATT
6-mer SELEX enrichment z-score (IMP3 KH1-4): 0.543 | 6-mer SELEX enrichment z-score (IMP3 RRM1-2): -1.31 | 6-mer SELEX enrichment z-score (IMP3 full-length): -0.962 | 6-mer SELEX enrichment z-score (IMP3 KH3-4): 1.78

CGTGGA
6-mer SELEX enrichment z-score (IMP3 KH1-4): -0.906 | 6-mer SELEX enrichment z-score (IMP3 RRM1-2): -0.427 | 6-mer SELEX enrichment z-score (IMP3 full-length): -0.666 | 6-mer SELEX enrichment z-score (IMP3 KH3-4): -0.899

CAGTTT
6-mer SELEX enrichment z-score (IMP3 KH1-4): 0.135 | 6-mer SELEX enrichment z-score (IMP3 RRM1-2): 0.405 | 6-mer SELEX enrichment z-score (IMP3 full-length): 0.298 | 6-mer SELEX enrichment z-score (IMP3 KH3-4): 0.219

TCGGAA
6-mer SELEX enrichment z-score (IMP3 KH1-4): -0.082 | 6-mer SELEX enrichment z-score (IMP3 RRM1-2): -0.386 | 6-mer SELEX enrichment z-score (IMP3 full-length): -0.088 | 6-mer SELEX enrichment z-score (IMP3 KH3-4): 0.159

TAAACC
6-mer SELEX enrichment z-score (IMP3 KH1-4): -1.05 | 6-mer SELEX enrichment z-score (IMP3 RRM1-2): -1.48 | 6-mer SELEX enrichment z-score (IMP3 full-length): -1.85 | 6-mer SELEX enrichment z-score (IMP3 KH3-4): -1.09

TGTTGT
6-mer SELEX enrichment z-score (IMP3 KH1-4): 0.191 | 6-mer SELEX enrichment z-score (IMP3 RRM1-2): 0.443 | 6-mer SELEX enrichment z-score (IMP3 full-length): -0.028 | 6-mer SELEX enrichment z-score (IMP3 KH3-4): 0.267

CCGGAG
6-mer SELEX enrichment z-score (IMP3 KH1-4): -0.679 | 6-mer SELEX enrichment z-score (IMP3 RRM1-2): -0.952 | 6-mer SELEX enrichment z-score (IMP3 full-length): -0.195 | 6-mer SELEX enrichment z-score (IMP3 KH3-4): -0.712

CCCCGT
6-mer SELEX enrichment z-score (IMP3 KH1-4): -0.409 | 6-mer SELEX enrichment z-score (IMP3 RRM1-2): -0.449 | 6-mer SELEX enrichment z-score (IMP3 full-length): -0.263 | 6-mer SELEX enrichment z-score (IMP3 KH3-4): -0.814

CTAAGG
6-mer SELEX enrichment z-score (IMP3 KH1-4): -0.12 | 6-mer SELEX enrichment z-score (IMP3 RRM1-2): 0.192 | 6-mer SELEX enrichment z-score (IMP3 full-length): -0.195 | 6-mer SELEX enrichment z-score (IMP3 KH3-4): -0.019

CAGCTG
6-mer SELEX enrichment z-score (IMP3 KH1-4): -0.046 | 6-mer SELEX enrichment z-score (IMP3 RRM1-2): 0.242 | 6-mer SELEX enrichment z-score (IMP3 full-length): 0.39 | 6-mer SELEX enrichment z-score (IMP3 KH3-4): -0.231

CGTCGC
6-mer SELEX enrichment z-score (IMP3 KH1-4): -0.148 | 6-mer SELEX enrichment z-score (IMP3 RRM1-2): 0.328 | 6-mer SELEX enrichment z-score (IMP3 full-length): 0.523 | 6-mer SELEX enrichment z-score (IMP3 KH3-4): -0.264
